The chains are these.
B1: chr1:163117127:163117128:-_ENSG00000143248_ENST00000313961|hu_mus|hu_hu_hu_mus_False|48_98 (ssRNA)
RNA: GGGAGUUCUACAGUCCGACGAUCUGCUACAAAGGAUGGAGGAAAUAUCACAGGGCAACUUUUGGAAGCCUGACCAGAUGACUACUUGAUUAACUCCUUAUAAAAUUCAGAGCGCACAAAGCGGGGCAGAGAAUCCUUCUCCAUCAACAGAGGAUUGAGCAUCA
B2: chr14:34206250:34206251:-_ENSMUSG00000021936_ENSMUST00000111945|mus_mus|motif|central (ssRNA)
RNA: GGGAGUUCUACAGUCCGACGAUCUGCAGUCCUCGCCAGUCCAAAAUCAAGAAUCUUCAAAGUGCAGUCUGAUUUGACGGCGGUAUUACUAGGCUUUAAGUCCCGAUGAAUAAUUCCAGCAGAGUGAAGGUGCUUGAUUCCACACAACAGAGGAUUGAGCAUCA
B3: chr4:99338562:99338563:+_ENSG00000138698_ENST00000453712|hu_hu|FALSE|FALSE (ssRNA)
RNA: GGGAGUUCUACAGUCCGACGAUCUCCAGCAAGCUGUAGCUGGUGGUUAUUUGAUGGGAUCCAAGAGAGUACCCUUUGAAAUACACUACCUUUUCCUCCUUCAAAUAACUUCUGCAUGGAUUCAUCUCCAAGAAGUAAUAAAACCAACAGAGGAUUGAGCAUCA
B4: chr2:217001844:217001845:+_ENSG00000079246_ENST00000392132|hu_hu|hu_hu_hu_mus_False|18_58 (ssRNA)
RNA: GGGAGUUCUACAGUCCGACGAUCACCAACUUGAGGAUUAGAUCUUUUGUCAUAAGCAUAUCGGACGAUGGCGACCAUGUCUAAGUCAUCCAAAGCAUGAACGAGAGAGGAAAGGGCAACUGCAGCUGCCUCAUCAUCCUUUGCCAACAGAGGAUUGAGCAUCA
B5: chr3:167401952:167401953:-_ENSG00000114209_ENST00000497056|hu_mus|FALSE|FALSE (ssRNA)
RNA: GGGAGUUCUACAGUCCGACGAUCAAAAGAAUGAUAAUAGCAAAAGUGAUGCAAAAUCUUCAUUGUGAGAUUAUGAUUAAGCUACAUUUUACAAAAAUAUGGUGUAAGAUGGCAAUAAUCCCAUUCAACAUCCUGGAUUAGGUCCAACAGAGGAUUGAGCAUCA
B6: 153988690_153988810_1802_3pUTR_ENSMUSG00000046873_ENSMUST00000058098|mouse|control|control (ssRNA)
RNA: GGGAGUUCUACAGUCCGACGAUCUACUCCCUCUACUACAGAGUUUUUGGGUUCUCUAGAUAUUAGGAGCUCAAAGAGGUUGGCCAAGGUGUUUUAAGGAAACACUUUACAUUUCAUAACUAGUAAGAAUUUCAAUGGCAACAGCAACAGAGGAUUGAGCAUCA
B7: 145862194_145863126_1941_CDS_ENSG00000113649_ENST00000394421|human|control|control (ssRNA)
RNA: GGGAGUUCUACAGUCCGACGAUCCUCCCACGUUGAAAAAGCAGACACCCCUCUCUCUAGCAGCAUGUCCUUGAACUGCUUCAUUCGAGCCUCCAGAGGGACAAUGGCCCUUUCUCGGGCAGCUUUAAUUUCAGCUUCCAUGGCCAACAGAGGAUUGAGCAUCA
B8: chr2:44436386:44436387:+_ENSG00000138032_ENST00000378551|hu_mus|motif|central (ssRNA)
RNA: GGGAGUUCUACAGUCCGACGAUCCUCUGAAUCUCUCUUCACGGCUUCCUCUGAGACCUUGGGGGCAUUUGAAAAGCAAACGGAUACAACACUCAUGUUAUCUCGACUUCCCUUAUGUAAACAAGUGUCCACUACCCAAUUGCACAACAGAGGAUUGAGCAUCA
B9: 80185158_80186710_2278_CDS_ENSMUSG00000027006_ENSMUST00000028392|mouse|control|control (ssRNA)
RNA: GGGAGUUCUACAGUCCGACGAUCUUGGCAGUCCACACUGCCUACAUUGAUCAGUCCAGUUAACGUCCGGGCCAUGCGUUUCCAUUCUGGCAUCAAGACCUGACAGGGAUGACACCAUGGAGAAUAGAAAUCGACCAUCCAGACCAACAGAGGAUUGAGCAUCA
B10: chr7:97319096:97319097:+_ENSMUSG00000039361_ENSMUST00000049537|mus_hu|FALSE|FALSE (ssRNA)
RNA: GGGAGUUCUACAGUCCGACGAUCAUCUUUGAACAGGAGCAUGAAGGCAGCAUUUAUUACCCCAUUUGUAAGUUCAUUGCUAUUAACAUUAAAAUCAAGAAGUGCAUCCAUCUGAUUCUGAAUAAUUGGUACAGUUUUUAGGAGCAACAGAGGAUUGAGCAUCA
B11: chr17:61683753:61683754:+_ENSG00000136463_ENST00000258975|hu_hu|FALSE|FALSE (ssRNA)
RNA: GGGAGUUCUACAGUCCGACGAUCAAAAGAGUGACGAGCUCCUACAGCCAUCACUCCUCCAUUCUUAUUCAGGAUAUGUCUAAUGUCUGCUUGGCACUUGUGGCUACUGUUAGAUAAUGCCUCGAUGAGCAGAGAAGAGCCACCCAACAGAGGAUUGAGCAUCA
B12: chr4:95690885:95690886:+_ENSMUSG00000028572_ENSMUST00000156910|mus_mus|mus_mus_mus_hu_False|28_58 (ssRNA)
RNA: GGGAGUUCUACAGUCCGACGAUCUUUAGAAAAUGUUAAAUACCAUGCUAAAAUAUUUUCAAAGGCUUAUUUUAUUUUACUAAAAGACACAGGCAAGCAGACACUACAAACAUACAAGAAAAUGAAACUCAACAAUAUAACUGUCAACAGAGGAUUGAGCAUCA
B13: 7345498_7345716_1240_CDS_ENSMUSG00000024968_ENSMUST00000066646|mouse|control|control (ssRNA)
RNA: GGGAGUUCUACAGUCCGACGAUCACUCACAGCUCCUCGUCCCUCUUCUAGUUCAUCACUGUCUUCUUUGUCCUUGCGGCCACCCAGCCGCCUGGCCUGCCUGUCCAUCACACUAGUUCGACUUCGGGUCUUCUUCCAAGAGUACAACAGAGGAUUGAGCAUCA
B14: chr4:48472932:48472933:-_ENSMUSG00000028345_ENSMUST00000030030|mus_mus|FALSE|FALSE (ssRNA)
RNA: GGGAGUUCUACAGUCCGACGAUCGGUUGAAGCAUUUGCCAGCGAGACCAUGAUAUCAGACAGUGUUAAGUUCAGUAAAAGAUGAUCUACAUUAUUGGAGAGAACUGUGCAAUGCUUGAUGCUUUUAUUUGUAUCUUUCUUCCGCAACAGAGGAUUGAGCAUCA
B15: chr4:57314706:57314707:+_ENSG00000128050_ENST00000264221|hu_mus|hu_hu_hu_mus_True|1_108 (ssRNA)
RNA: GGGAGUUCUACAGUCCGACGAUCCAGUAUUUCAAAUAUAGCUUGUGUGGCAUGACUCAUGAUGUCCACUUCAGUCUGCCCUAUAACAAGGCCAGCAAAACAGAAUUUUGCAGCAAUGAGUUGCUCCUCAGACCACUGUGGGUCCAACAGAGGAUUGAGCAUCA
B16: chr16:13130331:13130332:+_ENSMUSG00000022545_ENSMUST00000023206|mus_mus|FALSE|FALSE (ssRNA)
RNA: GGGAGUUCUACAGUCCGACGAUCCUUUCUAACAUUUACCCACACUUCUUCAGCUUUGCCAUCCUUCUCAAAAGUUUUCCUAUAAAGUCGCAGCAGGAAGGUUUCUGCUCCGGCGGACAGGUAGUCUCUCAGCUGGCAGCACGUCAACAGAGGAUUGAGCAUCA
B17: chr12:16048344:16048345:+_ENSG00000023734_ENST00000419869|hu_hu|hu_hu_hu_mus_True|58_98 (ssRNA)
RNA: GGGAGUUCUACAGUCCGACGAUCAGAUCGUCCAUAAGUUAUAACCAAAAUCUCUCCUUCAGGAAUAUACUCCAUGCUACUAACAGACAUAUUAAAAUUCAGAGAUUUCACUUCUGUCAUUGUGGCAUGAUCCCAGAGCCGAACCAACAGAGGAUUGAGCAUCA
B18: chr19:36933551:36933552:+_ENSMUSG00000024811_ENSMUST00000025729|mus_hu|motif|central (ssRNA)
RNA: GGGAGUUCUACAGUCCGACGAUCGUGGCCUUUAAAUUCAUAUGCUAAUCUUUCUUUUAACUGUGGUGUGGGAGCCAAGUCGGUAGCACUUUUAUUGUGACAAUUGAGCAGUGUUGGGUCUGCACCAUAACUUAAGAGAAGAGACAACAGAGGAUUGAGCAUCA
B19: 205589400_205589520_1053_3pUTR_ENSG00000158711_ENST00000357992|human|control|control (ssRNA)
RNA: GGGAGUUCUACAGUCCGACGAUCAUGGACGAAAUGGGUGGUGUGGUGGCAAAAGCAGUCAUUACGUUAGAGGCAGAGGUUGGGGCUUCCAGGGAAGGCAGUUUUGGGGAAACCAAUGUCUCCAAAGCUUGGAUAGUUUCUUCUCAACAGAGGAUUGAGCAUCA
B20: 60818152_60819469_732_3pUTR_ENSMUSG00000021559_ENSMUST00000077453|mouse|control|control (ssRNA)
RNA: GGGAGUUCUACAGUCCGACGAUCUCAUUUCCAAAGUCAAUUUUAUGGGCCAAGCCAAAGUCUAUGAUCUUGAUCCGAGGUUUGGGCACAUUUCUAUCCAGAAGCAUUAUGUUUUCCGGCUUCAGGUCAAAGUGAGCGAUCUGCCAACAGAGGAUUGAGCAUCA
B21: chr1:60041781:60041782:+_ENSMUSG00000041040_ENSMUST00000036540|mus_hu|mus_mus_mus_hu_False|1_8 (ssRNA)
RNA: GGGAGUUCUACAGUCCGACGAUCAAGUUUACAAUAGUAAAGUAAAUGCAGUAGUGGCAAAUUUUCUUUUAUUUUCCUUCACAAAAGAAAAUCUUUAUAACCCAGUCCUAGUCUUGGACAUAGUGAAUCUCCAUGGGGCCACUGCAACAGAGGAUUGAGCAUCA
B22: chr17:25041749:25041750:-_ENSMUSG00000024163_ENSMUST00000117509|mus_mus|motif|central (ssRNA)
RNA: GGGAGUUCUACAGUCCGACGAUCAGAUGGGUAGGAUCGUUUGGCCGGAGGGGGGCUAGAUGAGGAGCUGAAGAGGCGACGGAAGAACUGCCAGAUGGUGGACUUCUUCUUCUCCUGGACAGAUGGGUGUUCCCUUGAUGCUCUCAACAGAGGAUUGAGCAUCA

We go through 22 molecules from publication PMC12136788.

Some of the results follow.

The assay addresses T1, UNK ZnF1-3 (human, UniProt Q9C0B0 31-174).
T1 sequence: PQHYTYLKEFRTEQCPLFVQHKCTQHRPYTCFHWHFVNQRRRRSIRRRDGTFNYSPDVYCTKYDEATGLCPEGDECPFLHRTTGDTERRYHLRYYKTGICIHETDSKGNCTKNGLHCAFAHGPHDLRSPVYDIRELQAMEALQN
Put plainly: nsRBNS (natural sequence RNA bind-n-seq); RBNS binding buffer (assumed for nsRBNS): 25 mM Tris pH 7.5, 150 mM KCl, 3 mM MgCl2, 0.01% Triton X-100, 500 ug/ml BSA, 20 U/ml SUPERase-In, 4 C; UNK is unkempt and MSI1 is Musashi-1; names of the RNAs are library labels; protein concentration not given here; high values mean tight binding.
In turn, B1 yielded a binding signal of 2.19 enrichment R.
With B2, the binding signal came to 1.04 enrichment R.
Take B3: the binding signal was 0.885 enrichment R.
In the case of B4, the binding signal turned out to be 1.7 enrichment R.
Under B5 stands 0.761 enrichment R; under B6, 1.4 enrichment R; under B7, 1.38 enrichment R.
Under B8 stands 0.898 enrichment R; under B9, 0.328 enrichment R.
Turning to B10, the binding signal is 1.42 enrichment R.
For the molecule B11, the binding signal came to 0.839 enrichment R.
Under B12 stands 2.22 enrichment R; under B13, 0.733 enrichment R.
B14 had a binding signal of 1.09 enrichment R.
For B15, the binding signal was found to be 0.772 enrichment R.
Under B16 stands 0.782 enrichment R.
With B17, the binding signal turned out to be 0.959 enrichment R.
Under B18 stands 1.74 enrichment R; under B19, 1.75 enrichment R; under B20, 0.793 enrichment R.
Regarding B21, the binding signal was 0.832 enrichment R.
The molecule B22 gave a binding signal of 1.15 enrichment R.
